# Reference: the supplement of paper PMC9174493
# The list shows a part of the results. Single values of this set are uncertain. Values with irradiation are relative to irradiated vehicle.
# Test system: A549-Dual
# Experiment: NF-kB reporter (SEAP) activity, viability-corrected, relative to vehicle (fold change vs vehicle); higher = more activation of STING-IRF / NF-kB immune response reporter
# Conditions: 10 µM; irradiation: none
# 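For NF-kB reporter (SEAP) activity, viability-corrected, relative to vehicle in this document: viability correction based on the alamar blue assay, with concentrations leaving 10% survival or less dropped.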
row,SMILES,NF-kB reporter
1,CC1CN(CC(Cc2ccccc2)C(=O)NCC(=O)O)CCC1(C)c1cccc(O)c1.O.O (stereo not given) [Alvimopan dihydrate],0.579
2,CCN1CCCC1CNC(=O)c1cc(S(=O)(=O)CC)c(N)cc1OC (stereo not given) [Amisulpride],0.914
3,CC(O)C1C(=O)N2C(C(=O)O)=C(SC3CNC(CNS(N)(=O)=O)C3)C(C)C12 (stereo not given) [Doripenem],0.833
4,NC(=O)N/N=C/c1ccc([N+](=O)[O-])o1 [Nitrofural],0.848
5,Cc1ccc(NC(=O)C2(c3ccc4c(c3)OC(F)(F)O4)CC2)nc1-c1cccc(C(=O)O)c1 [VX-809 (Lumacaftor)],1.18

# Test system: A549-Dual
# Experiment: ISRE reporter (Lucia luciferase) activity, viability-corrected, relative to vehicle (fold change vs vehicle); higher = more activation of STING-IRF / NF-kB immune response reporter
# Conditions: 10 µM; irradiation: 8 Gy/4 fr
row,SMILES,ISRE reporter
1,CC1=C(C(=O)OC(C)C)C(c2cccc([N+](=O)[O-])c2)C(C(=O)OC2CN(C(c3ccccc3)c3ccccc3)C2)=C(N)N1 (stereo not given) [Azelnidipine],0.445
2,O=C(OC1CN2CCC1CC2)N1CCc2ccccc2C1c1ccccc1 (stereo not given) [Solifenacin],0.962
3,CCOc1nc2cccc(C(=O)O)c2n1Cc1ccc(-c2ccccc2-c2nn[nH]n2)cc1 [Candesartan],0.666
4,Clc1ccc(CCC(Cn2ccnc2)Sc2c(Cl)cccc2Cl)cc1 (stereo not given) [Butoconazole],0.175
5,CC1COc2c(C3(N)CC3)c(F)cc3c(=O)c(C(=O)O)cn1c23.CS(=O)(=O)O (stereo not given) [Pazufloxacin mesylate],0.769
6,CC(COc1ccccc1)N(CCCl)Cc1ccccc1.Cl (stereo not given) [Phenoxybenzamine HCl],0.652
7,COc1cc(NC(C)CCCN)c2ncccc2c1.O=P(O)(O)O.O=P(O)(O)O (stereo not given) [Primaquine Diphosphate],1.03
8,CNCC(O)C(O)C(O)C(O)CO (stereo not given) [Meglumine],0.743
9,COc1ccccc1OCC(O)COC(N)=O (stereo not given) [Methocarbamol],1.09
10,CC(C)N=c1cc2n(-c3ccc(Cl)cc3)c3ccccc3nc-2cc1Nc1ccc(Cl)cc1 [Clofazimine],0.965
11,C[N+]1(C)C2CC(OC(=O)C(O)(c3cccs3)c3cccs3)CC1C1OC12.O.[Br-] (stereo not given) [Tiotropium Bromide hydrate],0.928
12,OC1COC(O)C(O)C1O (stereo not drawn) [L(+)-Arabinose],0.744
13,O=C(O)C(=O)c1ccccc1 [Phenylglyoxylic acid],0.948
14,O=C(O)c1c[nH]c2ccccc12 [Indole-3-carboxylic acid],0.843
15,N=C(N)c1ccc(OCCCCCOc2ccc(C(=N)N)cc2)cc1.O=S(=O)(O)CCO.O=S(=O)(O)CCO [Pentamidine isethionate],0.177
16,C=CC1=C(C(=O)O)N2C(=O)C(NC(=O)/C(=N\OCC(=O)O)c3csc(N)n3)C2SC1 (stereo not given) [Cefixime],0.764
17,O=c1[nH]c(=O)n(C2CC(O)C(CO)O2)cc1/C=C/Br (stereo not given) [Brivudine],0.783
18,"CC1=CC(=O)C2CC1C2(C)C (single isomer, unassigned; (-)) [(-)-Verbenone]",0.715
19,OB1OCc2cc(F)ccc21 [Tavaborole (AN-2690)],0.524
20,O=c1cc[nH]c(=S)[nH]1 [2-Thiouracil],0.921

row,SMILES,ISRE reporter
1,CCOCCn1c(N2CCCN(C)CC2)nc2ccccc21.O=C(O)/C=C/C(=O)O.O=C(O)/C=C/C(=O)O [Emedastine Difumarate],0.819
2,CCCS(=O)c1ccc2nc(NC(=O)OC)[nH]c2c1 (stereo not given) [Albendazole Oxide],0.732
3,CC(Cc1ccc(O)c(O)c1)C(C)Cc1ccc(O)c(O)c1 (stereo not given) [Nordihydroguaiaretic acid (NDGA)],0.952
4,COc1cc2c(cc1OC)C1Cc3ccc(OC)c(OC)c3CN1CC2.Cl (stereo not given) [Tetrahydropalmatine hydrochloride],0.749
5,C#CC1(O)CCC2C3CCC4=CC(=O)CCC4C3CCC21CC (stereo not given) [Levonorgestrel],0.607
6,CCCCC(=O)N(Cc1ccc(-c2ccccc2-c2nn[nH]n2)cc1)C(C(=O)O)C(C)C (stereo not given) [Valsartan],0.517
7,OCC(O)COc1ccc(Cl)cc1 (stereo not given) [Chlorphenesin],0.708
8,CCCNC(C)C(=O)Nc1ccccc1C.Cl (stereo not given) [Prilocaine hydrochloride],0.619
9,C[n+]1ccccc1/C=N/O.[Cl-] [Pralidoxime chloride],0.782
10,O=c1[nH]c2ccccc2n1CCN1CCN(c2cccc(C(F)(F)F)c2)CC1 [Flibanserin],0.627
11,O=C1c2cccc(O)c2C(=O)c2c(O)cccc21 [Danthron],0.978
12,"CC12CCC(C1)C(C)(C)C2=O (single isomer, unassigned; (-)) [(-)-Fenchone]",0.612
13,C[N+](C)(C)CCO.Cn1c(=O)c2[n-]cnc2n(C)c1=O [Oxtriphylline],0.126
14,COC(=O)C1CC2=CC(=O)CCC2(C)C23OC2CC2(C)C(CCC24CCC(=O)O4)C13 (stereo not given) [Eplerenone],0.707
15,O=C(NCCO[N+](=O)[O-])c1cccnc1 [Nicorandil],0.873
16,CC1CN(CC(Cc2ccccc2)C(=O)NCC(=O)O)CCC1(C)c1cccc(O)c1.O.O (stereo not given) [Alvimopan dihydrate],0.642
17,CCN1CCCC1CNC(=O)c1cc(S(=O)(=O)CC)c(N)cc1OC (stereo not given) [Amisulpride],1.01
18,CC(O)C1C(=O)N2C(C(=O)O)=C(SC3CNC(CNS(N)(=O)=O)C3)C(C)C12 (stereo not given) [Doripenem],1.02
19,NC(=O)N/N=C/c1ccc([N+](=O)[O-])o1 [Nitrofural],0.51
20,Cc1ccc(NC(=O)C2(c3ccc4c(c3)OC(F)(F)O4)CC2)nc1-c1cccc(C(=O)O)c1 [VX-809 (Lumacaftor)],0.515
